Measurements published in the RNAGym collection of RNA variant scans (doi:10.7554/elife.90254).
Read counts are not given, so values of variants with three or more changes are uncertain.

B1: LINE1-full (parent)
chain: UACGUAGGUGGUUUUCCCCUGAUAGUGCUAAGGGGGCCUGGAAGUUUGGACUGGGCAGAGCUCAACACAGCGUGGCAAAGUGGCUGUGGCUAGACUGCCUCUCUGGAUUCCUCGUCACUCAGCAGGGCAUCUCUGAGAGAAAUGCC

Variants of: B1
Assay: self-cleavage, relative activity (ratio to wild type); higher = more cleavage; in vitro, sequencing; the parent is a self-cleaving ribozyme

Variant	self-cleavage
U9G A79G U81G A121U A138U	0.54
A24U U47C U109A	1.73
U20A G36C U62C	0.09
A42G U87G U100A U102C U143A	0
U13A U52C C90G C123U	0.05
U12G U20C A65G G114A	0.11
A6G A24G A59G A79G U104A	0
U9C G32U A50G A78G C133A	0.91
U1C A67C G74A	0.07
A78G U108C U112A A142G	1.21
A2C A59U U132A	0.74
A6U U39G U73C	0.57
U5C A79G U102C	0
U13C A30G A67G G127C	0
U5A U73C A77U	0.94
G35U U104C A129G U143A	1.24
U26C U81C A124U U143G	2.55
U12G U15C G88A U104A	0.29
A31U U47A U102C A141G	1.69
A42G C66U U87C	0
A107U U108A U130C	1.28

Variant	self-cleavage
U39A A57U C146U	0.07
U14C U23C U87A	0.16
A64U U96A U108A	0.06
A2G U5A A77G U104A A107U A142G	0.67
A2G U109A U115C	1.46
C19U C51A A57C U143C	0.09
A43G U100C A117G	1.15
G48A U52A U115C	0.88
U13A A42G A78G U85C U100A	0.27
A31U A43G U52A A94G	0.39
U47A U62A A94G	0
G49A U87C C111U	0.09
U46C A79C U81C	1.67
U1C U87C G127C	0.74
U109C A121G A140G	0.13
U47C U96C U109A U119C A121U	0
U5A U46A A67U U96C A140G	0.11
A42G U109A U143C	0.86
U45A U100C U109C	0.32
G7C A94G A140C	0.92
U14C U45A A57U	0.05

Variant	self-cleavage
A64G A77G A140U	0.23
G93U A136G A138G	0.06
A64G A67U U73A G137U	0.07
U85C U102C A142G	0.14
U9C U52A U73A	1.94
C28U U62C A67U U81A U85A	0.03
U39A C131A U132C	1.17
A43U U45A A77G A129G	2.38
C95A U109C U143A	0.07
G36C A43G C63U U85C	0.04
G10A U15C A77G A79G	0.61
G4A U20C A69G A77G	0.8
G33U G55A A78G A94C A124G	0.05
U12C U47C A94G	0.48
U12C U85A G106U A142G	0.13
U12C A24G U26G U45A C76U U91C	0.54
U12A U13C A78U	1.32
G86A U102G U115C	0
A79G U96C U112C A124G U143A	0
U12C A79G U87A	0.13
U23C A30G U85A A121U	0.18

Variant	self-cleavage
C90A U100C G135A	0.06
A64U A69G A78G U134C	0.09
C19U U45A U52A A69C U108A	0.06
U5C A42G A69U	0
A67U A94C U108C	0
U20G G32A A69U A142G	0.12
G27A U39C A79G A138G	0.42
U47C U100C A136U	0
U12C U14C U132C	1.29
U9A U20C U39C A77G A129U A142G	2.08
G44U U46C A94G C123U	0.33
A24G A57U G72A	0.24
U29G A78G U134C	2.51
A67G A78G U115A A124G A138U	0.73
U39G U45C U62C U132A	0
C56A A69G U143C C146U	0.05
A24U U26C G36A U47C U115C	1.08
U39C A67U U96C A136G	0
U62C U102C A107G G114A	0.05
G10A U15C G40U	0.54
U14C A57U G70U	0.07
